# Source: patent US20220023439A1, “ACTIVATABLE ANTI-CD166 ANTIBODIES AND METHODS OF USE THEREOF” (priority 2018, published 2022)
# B1: Combination 55 (conjugate)
# heavy: QITLKESGPTLVKPTQTLTLTCTFSGFSLSTYGMGVGWIRQPPGKALEWLANIWWSEDKHYSPSLKSRLTITKDTSKNQVVLTITNVDPVDTATYYCVQIDYGNDYAFTYWGQGTLVTVSS[skipping human IgG1 constant region]
# light: QGQSGQGLCHPAVLSAWESCSSGGGSSGGSAVGLLAPPGGLSGRSDNHGGSDIVMTQSPLSLPVTPGEPASISCRSSKSLLHSNGITYLYWYLQKPGQSPQLLIYQMSNLASGVPDRFSGSGSGTDFTLKISRVEAEDVGVYYCAQNLELPYTFGQGTKLEIKRTVAAPSVFIFPPSDEQLKSGTASVVCLLNNFYPREAKVQWKVDNALQSGNSQESVTEQDSKDSTYSLSSTLTLSKADYEKHKVYACEVTHQGLSSPVTKSFNRGEC
# modifications: DM4 via SPDB linker
# Assay: Phase 1/2 study in human subjects: adverse events, DLT and MTD (NCI CTCAE v4.03)
# Assay type: in vivo
# Settings: for Subjects with Infusion Reactions Grade 1-2 / Subjects with Infusion Reactions Grade 3-4 / Subjects with Ocular Toxicities Grade 1-2 / Subjects with Ocular Toxicities Grade 3-4 / Subjects with Treatment-Related Adverse Events Grade 1-2 / Subjects with Treatment-Related Adverse Events Grade 3-4: Table 10
molecule,measurement,setting,value
B1,Subjects with Infusion Reactions Grade 1-2,"0.25 mg/kg, n=1",0
same,Subjects with Infusion Reactions Grade 3-4,"0.25 mg/kg, n=1",0
same,Subjects with Ocular Toxicities Grade 1-2,"0.25 mg/kg, n=1",0
same,Subjects with Ocular Toxicities Grade 3-4,"0.25 mg/kg, n=1",0
same,Subjects with Treatment-Related Adverse Events Grade 1-2,"0.25 mg/kg, n=1",0
same,Subjects with Treatment-Related Adverse Events Grade 3-4,"0.25 mg/kg, n=1",0
same,Subjects with Infusion Reactions Grade 1-2,"0.5 mg/kg, n=3",0
same,Subjects with Infusion Reactions Grade 3-4,"0.5 mg/kg, n=3",0
same,Subjects with Ocular Toxicities Grade 1-2,"0.5 mg/kg, n=3",0
same,Subjects with Ocular Toxicities Grade 3-4,"0.5 mg/kg, n=3",0
same,Subjects with Treatment-Related Adverse Events Grade 1-2,"0.5 mg/kg, n=3",1
same,Subjects with Treatment-Related Adverse Events Grade 3-4,"0.5 mg/kg, n=3",0
same,Subjects with Infusion Reactions Grade 1-2,"1 mg/kg, n=3",1
same,Subjects with Infusion Reactions Grade 3-4,"1 mg/kg, n=3",0
same,Subjects with Ocular Toxicities Grade 1-2,"1 mg/kg, n=3",0
same,Subjects with Ocular Toxicities Grade 3-4,"1 mg/kg, n=3",0
same,Subjects with Treatment-Related Adverse Events Grade 1-2,"1 mg/kg, n=3",2
same,Subjects with Treatment-Related Adverse Events Grade 3-4,"1 mg/kg, n=3",0
same,Subjects with Infusion Reactions Grade 1-2,"2 mg/kg, n=3",1
same,Subjects with Infusion Reactions Grade 3-4,"2 mg/kg, n=3",0
same,Subjects with Ocular Toxicities Grade 1-2,"2 mg/kg, n=3",0
same,Subjects with Ocular Toxicities Grade 3-4,"2 mg/kg, n=3",0
same,Subjects with Treatment-Related Adverse Events Grade 1-2,"2 mg/kg, n=3",3
same,Subjects with Treatment-Related Adverse Events Grade 3-4,"2 mg/kg, n=3",0
same,Subjects with Infusion Reactions Grade 1-2,"4 mg/kg, n=10",1
same,Subjects with Infusion Reactions Grade 3-4,"4 mg/kg, n=10",0
same,Subjects with Ocular Toxicities Grade 1-2,"4 mg/kg, n=10",2
same,Subjects with Ocular Toxicities Grade 3-4,"4 mg/kg, n=10",0
same,Subjects with Treatment-Related Adverse Events Grade 1-2,"4 mg/kg, n=10",7
same,Subjects with Treatment-Related Adverse Events Grade 3-4,"4 mg/kg, n=10",1
same,Subjects with Infusion Reactions Grade 1-2,"5 mg/kg, n=9",2
same,Subjects with Infusion Reactions Grade 3-4,"5 mg/kg, n=9",0
same,Subjects with Ocular Toxicities Grade 1-2,"5 mg/kg, n=9",5
same,Subjects with Ocular Toxicities Grade 3-4,"5 mg/kg, n=9",1
same,Subjects with Treatment-Related Adverse Events Grade 1-2,"5 mg/kg, n=9",6
same,Subjects with Treatment-Related Adverse Events Grade 3-4,"5 mg/kg, n=9",3
same,Subjects with Infusion Reactions Grade 1-2,"6 mg/kg, n=9",3
same,Subjects with Infusion Reactions Grade 3-4,"6 mg/kg, n=9",0
same,Subjects with Ocular Toxicities Grade 1-2,"6 mg/kg, n=9",2
same,Subjects with Ocular Toxicities Grade 3-4,"6 mg/kg, n=9",0
same,Subjects with Treatment-Related Adverse Events Grade 1-2,"6 mg/kg, n=9",7
same,Subjects with Treatment-Related Adverse Events Grade 3-4,"6 mg/kg, n=9",2
same,Subjects with Infusion Reactions Grade 1-2,"7 mg/kg, n=9",3
same,Subjects with Infusion Reactions Grade 3-4,"7 mg/kg, n=9",0
same,Subjects with Ocular Toxicities Grade 1-2,"7 mg/kg, n=9",3
same,Subjects with Ocular Toxicities Grade 3-4,"7 mg/kg, n=9",0
same,Subjects with Treatment-Related Adverse Events Grade 1-2,"7 mg/kg, n=9",6
same,Subjects with Treatment-Related Adverse Events Grade 3-4,"7 mg/kg, n=9",2
same,Subjects with Infusion Reactions Grade 1-2,"8 mg/kg, n=12",2
same,Subjects with Infusion Reactions Grade 3-4,"8 mg/kg, n=12",1
same,Subjects with Ocular Toxicities Grade 1-2,"8 mg/kg, n=12",6
same,Subjects with Ocular Toxicities Grade 3-4,"8 mg/kg, n=12",2
same,Subjects with Treatment-Related Adverse Events Grade 1-2,"8 mg/kg, n=12",6
same,Subjects with Treatment-Related Adverse Events Grade 3-4,"8 mg/kg, n=12",5
same,Subjects with Infusion Reactions Grade 1-2,"9 mg/kg, n=7",0
same,Subjects with Infusion Reactions Grade 3-4,"9 mg/kg, n=7",0
same,Subjects with Ocular Toxicities Grade 1-2,"9 mg/kg, n=7",1
same,Subjects with Ocular Toxicities Grade 3-4,"9 mg/kg, n=7",2
same,Subjects with Treatment-Related Adverse Events Grade 1-2,"9 mg/kg, n=7",3
same,Subjects with Treatment-Related Adverse Events Grade 3-4,"9 mg/kg, n=7",2
same,Subjects with Infusion Reactions Grade 1-2,"10 mg/kg, n=5",0
same,Subjects with Infusion Reactions Grade 3-4,"10 mg/kg, n=5",0
same,Subjects with Ocular Toxicities Grade 1-2,"10 mg/kg, n=5",1
same,Subjects with Ocular Toxicities Grade 3-4,"10 mg/kg, n=5",1
same,Subjects with Treatment-Related Adverse Events Grade 1-2,"10 mg/kg, n=5",1
same,Subjects with Treatment-Related Adverse Events Grade 3-4,"10 mg/kg, n=5",2
same,"Grade 3-4 TRAEs, Eye Disorders (% of subjects observed)","10 mg/kg, n=8, Table 11A",(12.5%)
same,"Grade 3-4 TRAEs, Eye Disorders (no. of subjects)","10 mg/kg, n=8, Table 11A",1
same,"Grade 3-4 TRAEs, Gastrointestinal Disorders (% of subjects observed)","10 mg/kg, n=8, Table 11A",(12.5%)
same,"Grade 3-4 TRAEs, Gastrointestinal Disorders (no. of subjects)","10 mg/kg, n=8, Table 11A",1
same,"Grade 3-4 TRAEs, Liver Function Tests (% of subjects observed)","10 mg/kg, n=8, Table 11A",(37.5%)
same,"Grade 3-4 TRAEs, Liver Function Tests (no. of subjects)","10 mg/kg, n=8, Table 11A",3
same,"Grade 3-4 TRAEs, Metabolism & Nutrition Disorders (no. of subjects)","10 mg/kg, n=8, Table 11A",0
same,"Grade 3-4 TRAEs, Nervous System Disorders (no. of subjects)","10 mg/kg, n=8, Table 11A",0
same,Total Grade 3-4 TRAEs (% of subjects observed),"10 mg/kg, n=8, Table 11A",(50%)
same,Total Grade 3-4 TRAEs (no. of subjects),"10 mg/kg, n=8, Table 11A",4
same,Grade 3-4 TRAE Anemia (no. of subjects),"10 mg/kg, n=8, Table 11B",0
same,Grade 3-4 TRAE Fatigue (% of subjects observed),"10 mg/kg, n=8, Table 11B",(13%)
same,Grade 3-4 TRAE Fatigue (no. of subjects),"10 mg/kg, n=8, Table 11B",1
same,"Grade 3-4 TRAE HN, hyponatremia (no. of subjects)","10 mg/kg, n=8, Table 11B",0
same,Grade 3-4 TRAE Increased ALT (% of subjects observed),"10 mg/kg, n=8, Table 11B",(25%)
same,Grade 3-4 TRAE Increased ALT (no. of subjects),"10 mg/kg, n=8, Table 11B",2
same,Grade 3-4 TRAE Increased AST (% of subjects observed),"10 mg/kg, n=8, Table 11B",(38%)
same,Grade 3-4 TRAE Increased AST (no. of subjects),"10 mg/kg, n=8, Table 11B",3
same,Grade 3-4 TRAE Keratitis (% of subjects observed),"10 mg/kg, n=8, Table 11B",(13%)
same,Grade 3-4 TRAE Keratitis (no. of subjects),"10 mg/kg, n=8, Table 11B",1
same,Grade 3-4 TRAE Nausea (% of subjects observed),"10 mg/kg, n=8, Table 11B",(13%)
same,Grade 3-4 TRAE Nausea (no. of subjects),"10 mg/kg, n=8, Table 11B",1
same,"Grade 3-4 TRAE PSN, Peripheral sensory neuropathy (no. of subjects)","10 mg/kg, n=8, Table 11B",0
same,Grade 3-4 TRAE Vomiting (no. of subjects),"10 mg/kg, n=8, Table 11B",0
same,"Grade 3-4 TRAEs, Eye Disorders (% of subjects observed)","4-5 mg/kg, n=19, Table 11A",(5.3%)
same,"Grade 3-4 TRAEs, Eye Disorders (no. of subjects)","4-5 mg/kg, n=19, Table 11A",1
same,"Grade 3-4 TRAEs, Gastrointestinal Disorders (no. of subjects)","4-5 mg/kg, n=19, Table 11A",0
same,"Grade 3-4 TRAEs, Liver Function Tests (no. of subjects)","4-5 mg/kg, n=19, Table 11A",0
same,"Grade 3-4 TRAEs, Metabolism & Nutrition Disorders (no. of subjects)","4-5 mg/kg, n=19, Table 11A",0
same,"Grade 3-4 TRAEs, Nervous System Disorders (% of subjects observed)","4-5 mg/kg, n=19, Table 11A",(5.3%)
same,"Grade 3-4 TRAEs, Nervous System Disorders (no. of subjects)","4-5 mg/kg, n=19, Table 11A",1
same,Total Grade 3-4 TRAEs (% of subjects observed),"4-5 mg/kg, n=19, Table 11A",(21.1%)
same,Total Grade 3-4 TRAEs (no. of subjects),"4-5 mg/kg, n=19, Table 11A",4
same,Grade 3-4 TRAE Anemia (% of subjects observed),"4-5 mg/kg, n=19, Table 11B",(5%)
same,Grade 3-4 TRAE Anemia (no. of subjects),"4-5 mg/kg, n=19, Table 11B",1
same,Grade 3-4 TRAE Fatigue (% of subjects observed),"4-5 mg/kg, n=19, Table 11B",(5%)
same,Grade 3-4 TRAE Fatigue (no. of subjects),"4-5 mg/kg, n=19, Table 11B",1
same,"Grade 3-4 TRAE HN, hyponatremia (no. of subjects)","4-5 mg/kg, n=19, Table 11B",0
same,Grade 3-4 TRAE Increased ALT (no. of subjects),"4-5 mg/kg, n=19, Table 11B",0
same,Grade 3-4 TRAE Increased AST (no. of subjects),"4-5 mg/kg, n=19, Table 11B",0
same,Grade 3-4 TRAE Keratitis (% of subjects observed),"4-5 mg/kg, n=19, Table 11B",(5%)
same,Grade 3-4 TRAE Keratitis (no. of subjects),"4-5 mg/kg, n=19, Table 11B",1
same,Grade 3-4 TRAE Nausea (no. of subjects),"4-5 mg/kg, n=19, Table 11B",0
same,"Grade 3-4 TRAE PSN, Peripheral sensory neuropathy (% of subjects observed)","4-5 mg/kg, n=19, Table 11B",(5%)
same,"Grade 3-4 TRAE PSN, Peripheral sensory neuropathy (no. of subjects)","4-5 mg/kg, n=19, Table 11B",1
same,Grade 3-4 TRAE Vomiting (no. of subjects),"4-5 mg/kg, n=19, Table 11B",0
same,"Grade 3-4 TRAEs, Eye Disorders (no. of subjects)","6-7 mg/kg, n=18, Table 11A",0
same,"Grade 3-4 TRAEs, Gastrointestinal Disorders (% of subjects observed)","6-7 mg/kg, n=18, Table 11A",(5.6%)
same,"Grade 3-4 TRAEs, Gastrointestinal Disorders (no. of subjects)","6-7 mg/kg, n=18, Table 11A",1
same,"Grade 3-4 TRAEs, Liver Function Tests (no. of subjects)","6-7 mg/kg, n=18, Table 11A",0
same,"Grade 3-4 TRAEs, Metabolism & Nutrition Disorders (% of subjects observed)","6-7 mg/kg, n=18, Table 11A",(11.1%)
same,"Grade 3-4 TRAEs, Metabolism & Nutrition Disorders (no. of subjects)","6-7 mg/kg, n=18, Table 11A",2
